From article PMC7819943, “Rice protein-binding microarrays: a tool to detect cis-acting elements near promoter regions in rice”
Some of the results follow.

Molecular target: T1, OsWOX13 (Oryza sativa, UniProt Q5QMM3 1-267)
T1 sequence: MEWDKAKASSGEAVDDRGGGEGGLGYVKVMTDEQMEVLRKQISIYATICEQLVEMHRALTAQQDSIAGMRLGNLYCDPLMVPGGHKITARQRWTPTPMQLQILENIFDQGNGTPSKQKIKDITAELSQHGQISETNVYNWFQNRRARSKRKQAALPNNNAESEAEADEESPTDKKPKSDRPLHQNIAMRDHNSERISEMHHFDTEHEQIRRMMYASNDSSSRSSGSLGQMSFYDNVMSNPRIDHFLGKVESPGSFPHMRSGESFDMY
Assay: protein-binding microarray (RPBM); PBS, 2% BSA, 51.3 ng/ul salmon testes DNA, 50 uM zinc acetate, 200 nM TF, 25 C, 1 h; high values mean tight binding
Details: protein: recombinant; tags: N-terminal polyhistidine and DsRed monomer fusion (pET32a); label: CyDye5-dUTP incorporated in the synthesized complementary strand; 3' TTTTT single-stranded linker to array surface; dsDNA, one strand shown
Outline: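 In PBS with 2% BSA, salmon testes DNA and 50 µM zinc acetate, 200 nM protein was incubated on a custom Agilent array at 25 °C for 1 h and then washed off. The array had been made double-stranded by primer extension with Cy5-dUTP and blocked with 2% BSA. The proteins were transcription factors fused N-terminally to polyhistidine and DsRed, expressed in E. coli BL21-CodonPlus and purified on Ni–NTA. The binding signal is per-feature fluorescence intensity (arbitrary units) from an Axon 4000B scanner.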

Row | Sequence | binding signal
1 | ACACCGATTGATCACTAGTGTGCTATGTAAGCTCCTACTCCGGAGTCACCTAGTGCAG | 7130 fluorescence intensity (a.u.)
2 | CTGTGTGTAATTTATCTACTTTTATTAGATTAAGATATGCCGGAGTCACCTAGTGCAG | 10100 fluorescence intensity (a.u.)
3 | ATAAAATTGTGTGGTATGGTAAATTGGTAATCCTTATCCTCGGAGTCACCTAGTGCAG | 4750 fluorescence intensity (a.u.)
4 | AATTATCATCACAAATGACATGATTGATGCTACCTTTAGTCGGAGTCACCTAGTGCAG | 18000 fluorescence intensity (a.u.)
5 | TATGATTATGACTCTGATATAGTGATATATCTCACCCAATCGGAGTCACCTAGTGCAG | 39900 fluorescence intensity (a.u.)
6 | TCTCCCGCTGACTGACACCTCAAAACCGGCCGTCCCACGACGGAGTCACCTAGTGCAG | 3920 fluorescence intensity (a.u.)
7 | GTATTCTATTAATTCTATTAAACTCTAGGCCGGGATGTTACGGAGTCACCTAGTGCAG | 4250 fluorescence intensity (a.u.)
8 | ATAATTGTTCTTGTATCTCACTCACTCACTCACTCAATTGCGGAGTCACCTAGTGCAG | 4460 fluorescence intensity (a.u.)
9 | CTGATTAAGATCACTAATTGATCTGTCCACATTGCATCCTCGGAGTCACCTAGTGCAG | 54800 fluorescence intensity (a.u.)
10 | ACCCAATTAAGTTAAGCGTTTGATCGATGTGCGGTGTCTGCGGAGTCACCTAGTGCAG | 11500 fluorescence intensity (a.u.)
11 | GATGCAAATCAAAAGGACAAGATTATCCATATTATAGGTACGGAGTCACCTAGTGCAG | 3420 fluorescence intensity (a.u.)
12 | TGGGTTGATTTTACCTATTTTAGTAGTTTAGATTGGTAGTCGGAGTCACCTAGTGCAG | 7660 fluorescence intensity (a.u.)
13 | GTTAATTATAGATATATACTGCATCATTAATACCTAATATCGGAGTCACCTAGTGCAG | 28900 fluorescence intensity (a.u.)
14 | TACTTCACTAATTAAGCTCTAATAAGAAGCCCTGGCTGCTCGGAGTCACCTAGTGCAG | 5570 fluorescence intensity (a.u.)
15 | TTGATTTGTTACGTGTATATAATGGTTTGTTAAATTTGAACGGAGTCACCTAGTGCAG | 14400 fluorescence intensity (a.u.)
16 | AATAATACTGTAATAATTATATCTCTCAAGGCGTACGTGACGGAGTCACCTAGTGCAG | 4000 fluorescence intensity (a.u.)
17 | CAACATCTCCTCCAATCAGCAGCAGCAGCAGCAGAGCTGACGGAGTCACCTAGTGCAG | 3280 fluorescence intensity (a.u.)
18 | CCAAGTTAATTAGACAACCAGCTCACGTAACGGGACACTGCGGAGTCACCTAGTGCAG | 30900 fluorescence intensity (a.u.)
19 | AGCTAATGAATGATTTTCACTTGACCAGTACATCCAACATCGGAGTCACCTAGTGCAG | 23200 fluorescence intensity (a.u.)
20 | GTTGTACCACTGATTGGACTGCCTGCTTACCGATAATTAACGGAGTCACCTAGTGCAG | 24500 fluorescence intensity (a.u.)
21 | CTTAATTTCCTTTCATAAGTTCACTACCTAAATATATAAGCGGAGTCACCTAGTGCAG | 7470 fluorescence intensity (a.u.)

Row | Sequence | binding signal
22 | GTTATATAATGATTTGTAATTAATTTAATCTGAATACTGACGGAGTCACCTAGTGCAG | 38200 fluorescence intensity (a.u.)
23 | TATATTCAATTATTAATTTGATGAAACTAATTTAGTATTACGGAGTCACCTAGTGCAG | 12800 fluorescence intensity (a.u.)
24 | AAGAGGGAATTATCTAAATTTATTGCATGTCCATATTCACCGGAGTCACCTAGTGCAG | 7050 fluorescence intensity (a.u.)
25 | TATCATCACTACACATAATTATATAATATAGTAGTGCATACGGAGTCACCTAGTGCAG | 3530 fluorescence intensity (a.u.)
26 | ATTGATTTGATGAAACTAATTTAATATTATAAATATTATTCGGAGTCACCTAGTGCAG | 26000 fluorescence intensity (a.u.)
27 | TAATTAGCTTATTACCGTCAATCTTGAATAATTTGAGAGCCGGAGTCACCTAGTGCAG | 5640 fluorescence intensity (a.u.)
28 | TTTGATTTGGATCTTTTCTATAATGTTGCCGAATTGGCCACGGAGTCACCTAGTGCAG | 17200 fluorescence intensity (a.u.)
29 | GTGCTAATCAGTTGGCATAATAATCCAGAGAGTTGCACGACGGAGTCACCTAGTGCAG | 7820 fluorescence intensity (a.u.)
30 | TTAGGCCTAATTAATCCGTCATTAGCAAATGTTTACTATACGGAGTCACCTAGTGCAG | 10400 fluorescence intensity (a.u.)
31 | TAAACCCAATTAATTCGTCATTAGCAAATGTTTACTGTAGCGGAGTCACCTAGTGCAG | 10800 fluorescence intensity (a.u.)
32 | GAAATTTTCTGTCACATGATATATAGATAATCCATTAAGACGGAGTCACCTAGTGCAG | 5100 fluorescence intensity (a.u.)
33 | GCTTGATATACTATTTTCATGATGTGGTTCTTTTAAATTCCGGAGTCACCTAGTGCAG | 4660 fluorescence intensity (a.u.)
34 | GTTGCTAAATTTTAGTTATTACTGTGCAGTTGCCAAATTTCGGAGTCACCTAGTGCAG | 4010 fluorescence intensity (a.u.)
35 | CAAACGGGTAATTAACTGGGATTAATTTGCCATAAGCCGACGGAGTCACCTAGTGCAG | 53100 fluorescence intensity (a.u.)
36 | ATAATATATGATTAATTAAGTTTTAATTATTACAAACTTGCGGAGTCACCTAGTGCAG | 37000 fluorescence intensity (a.u.)
37 | GCCATCTAATCAATACATACAGCAAGTCATATAACATGTGCGGAGTCACCTAGTGCAG | 8330 fluorescence intensity (a.u.)
38 | TTGTTAATTTCCAGCGCTGCGAGCCTGCACGAACTCACGTCGGAGTCACCTAGTGCAG | 4680 fluorescence intensity (a.u.)
39 | GTGTAATTTTGTTAGGAAATTTGGGTTTGAATCAGTGGAACGGAGTCACCTAGTGCAG | 12500 fluorescence intensity (a.u.)
40 | CACACTTGTTAATTGGCAGAGAATTCACAAGTCCCATCAACGGAGTCACCTAGTGCAG | 20000 fluorescence intensity (a.u.)
41 | TCTTGATGAGTTATACAACTTTGTTGTTGATAACTTTCCCCGGAGTCACCTAGTGCAG | 12600 fluorescence intensity (a.u.)
42 | ATAAATACTTCTTTAATTATTATTAACATAACATAGAAAACGGAGTCACCTAGTGCAG | 3280 fluorescence intensity (a.u.)
